# Test results: a collection of fitness landscapes (doi:10.1016/j.celrep.2020.107928)
# The full ranking holds about 81,000 sequences; the median of “one-hybrid fitness for binding NBS DNA” is about -0.1, and the highest 2% start at about 0.36. This is one part of the list.
# B1: Caulobacter ParB omega fusion; a variant is named by its letters at X, in order, B8GW30 (parent)
# chain: MESVVVGEPGMSEGRRGLGRGLSALLGEVDAAPAQAPGEQLGGSREAPIEILQRNPDQPRRTFREEDLEDLSNSIREKGVLQPILVRPSPDTAGEYQIVAGERAWRAAQRAGLKTVPIMVRELDDLAVLEIGIIENVQRADLNVLEEALSYKVLMEKFERTQENIAQTIGKSXSHVANXMRLLXLPDEVQSYLVSGELTAXHARAIAAAADPVALAKQIIEGGLSVRETEALARKAPNLSAGKSKGGRPPRVKDTDTQALESDLSSVLGLDVSIDHRGSTGTLTITYATLEQLDDLCNRLTRGI
# Variants of: B1
# Assay: one-hybrid fitness for binding NBS DNA (the Noc-binding site; scaled: cognate 1, non-cognate 0); higher = stronger binding
# Settings: with NBS DNA site
# How it was run: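 Values were rescaled so that cognate is 1 and non-cognate is 0. Each is a fitness, the log change in a variant's read ratio to wild type from Illumina reads of plasmids before and after selection, with three replicate libraries pooled and variants under 10 reads dropped. Selection of the Caulobacter ParB libraries, four specificity codons randomised, used E. coli USO with a HIS3 reporter, site 19 bp from the promoter, on M9-minus-histidine with 0.1 mM IPTG and 5 mM 3-AT for 48 hours at 37°C.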
row,Variant,one-hybrid fitness for binding NBS DNA
1,DQCS,≤ 0.2
2,FPFG,≤ 0.2
3,DRTR,≤ 0.2
4,RPHY,≤ 0.2
5,QLIL,≤ 0.2
6,YSHA,≤ 0.2
7,GPQG,≤ 0.2
8,NHER,≤ 0.2
9,WKVT,≤ 0.2
10,QHNY,0.205
11,YGRG,≤ 0.2
12,CDSD,≤ 0.2
13,HGAE,≤ 0.2
14,NSNG,≤ 0.2
15,KCRV,≤ 0.2
16,MLTC,≤ 0.2
17,RMDW,≤ 0.2
18,AVKR,≤ 0.2
19,AQNT,≤ 0.2
20,CLHG,≤ 0.2
21,YLPF,≤ 0.2
22,RDTK,≤ 0.2
23,LSFC,≤ 0.2
24,ATFL,≤ 0.2

row,Variant,one-hybrid fitness for binding NBS DNA
1,TMGW,≤ 0.2
2,RCSQ,≤ 0.2
3,TNAT,≤ 0.2
4,RDQY,≤ 0.2
5,GMSS,≤ 0.2
6,KCHR,≤ 0.2
7,RMWH,≤ 0.2
8,LAAL,≤ 0.2
9,SIHM,≤ 0.2
10,HPSS,≤ 0.2
11,PYDH,≤ 0.2
12,YDPT,≤ 0.2
13,NNIS,≤ 0.2
14,GMPW,≤ 0.2
15,DDHL,≤ 0.2
16,QSYA,0.208
17,ASCY,≤ 0.2
18,HMRA,≤ 0.2
19,WWLL,≤ 0.2
20,YSVP,≤ 0.2
21,VGIR,≤ 0.2
22,QSDE,≤ 0.2
23,TLCR,≤ 0.2
24,ASRG,≤ 0.2

row,Variant,one-hybrid fitness for binding NBS DNA
1,DVVH,≤ 0.2
2,REKY,≤ 0.2
3,WMPS,≤ 0.2
4,HWCG,≤ 0.2
5,FRTM,≤ 0.2
6,PDNG,≤ 0.2
7,QKDT,0.401
8,DVWR,≤ 0.2
9,TSCG,≤ 0.2
10,YNTH,≤ 0.2
11,ANAS,≤ 0.2
12,YERR,≤ 0.2
13,IAWG,≤ 0.2
14,ANRS,≤ 0.2
15,IALG,≤ 0.2
16,QYSS,0.357
17,IRTS,≤ 0.2
18,DVCT,≤ 0.2
19,PAYN,≤ 0.2
20,WCAG,≤ 0.2
21,EDHR,≤ 0.2
22,PSYF,≤ 0.2
23,KYLG,≤ 0.2
24,APNT,≤ 0.2

row,Variant,one-hybrid fitness for binding NBS DNA
1,LTDG,≤ 0.2
2,PRTS,≤ 0.2
3,VGIN,≤ 0.2
4,QTPR,0.42
5,RCYV,≤ 0.2
6,LALF,≤ 0.2
7,SKKT,≤ 0.2
8,TPHK,≤ 0.2
9,WNAW,≤ 0.2
10,RQTM,≤ 0.2
11,NQAC,≤ 0.2
12,SMMI,≤ 0.2
13,PKDF,≤ 0.2
14,HDCI,≤ 0.2
15,YQDT,≤ 0.2
16,NSTQ,≤ 0.2
17,RWDK,≤ 0.2
18,RRAT,0.782
19,CHLD,≤ 0.2
20,NSFW,≤ 0.2
21,WPIR,≤ 0.2
22,TIHH,≤ 0.2
23,PEMN,≤ 0.2
24,NTAR,≤ 0.2

row,Variant,one-hybrid fitness for binding NBS DNA
1,ACMV,≤ 0.2
2,GGWR,≤ 0.2
3,YYGR,≤ 0.2
4,EDNC,≤ 0.2
5,QDRL,≤ 0.2
6,MCCR,≤ 0.2
7,RWKY,≤ 0.2
8,CQLC,≤ 0.2
9,PTIT,≤ 0.2
10,PNST,≤ 0.2
11,VFLT,≤ 0.2
12,PEKF,≤ 0.2
13,LITS,≤ 0.2
14,TWTQ,≤ 0.2
15,AQGK,≤ 0.2
16,NSQG,≤ 0.2
17,IKWD,≤ 0.2
18,VRMT,≤ 0.2
19,TLTD,≤ 0.2
20,GLHL,≤ 0.2
21,PNNI,≤ 0.2
22,QCAL,≤ 0.2
23,LWCG,≤ 0.2
24,FPSD,≤ 0.2

row,Variant,one-hybrid fitness for binding NBS DNA
1,TYKG,≤ 0.2
2,PNPK,≤ 0.2
3,CNWV,≤ 0.2
4,VNQF,≤ 0.2
5,ALNM,≤ 0.2
6,RWRP,≤ 0.2
7,CRNP,≤ 0.2
8,GHVY,≤ 0.2
9,VASN,≤ 0.2
10,SGRL,≤ 0.2
11,TTMN,≤ 0.2
12,VDMY,≤ 0.2
13,GPKG,≤ 0.2
14,SLQG,≤ 0.2
15,TFFS,≤ 0.2
16,QAIG,≤ 0.2
17,HYPR,≤ 0.2
18,QQPK,≤ 0.2
19,PMWC,≤ 0.2
20,DYNL,≤ 0.2
21,TSQG,≤ 0.2
22,HDWY,≤ 0.2
23,NLKM,≤ 0.2
24,TREA,≤ 0.2

row,Variant,one-hybrid fitness for binding NBS DNA
1,DIKC,≤ 0.2
2,LTTE,≤ 0.2
3,DIGR,0.229
4,RPKK,≤ 0.2
5,FPLT,≤ 0.2
6,PITD,≤ 0.2
7,RFMM,≤ 0.2
8,GWNC,≤ 0.2
9,LVRP,≤ 0.2
10,DDYV,≤ 0.2
11,DPPG,≤ 0.2
12,VASM,≤ 0.2
13,TWNP,≤ 0.2
14,EIFG,≤ 0.2
15,QPAQ,≤ 0.2
16,QCQS,0.448
17,QQCR,0.63
18,RNFR,≤ 0.2
19,WMPG,≤ 0.2
20,PYCR,≤ 0.2
21,EYIS,≤ 0.2
22,QALP,≤ 0.2
23,RSSG,≤ 0.2
24,CVNS,≤ 0.2

row,Variant,one-hybrid fitness for binding NBS DNA
1,HREN,≤ 0.2
2,SWGS,≤ 0.2
3,QFGL,≤ 0.2
4,EHGL,≤ 0.2
5,TNEC,≤ 0.2
6,ESVR,≤ 0.2
7,LIGS,≤ 0.2
8,MGSF,≤ 0.2
9,QQPS,0.26
10,NLIT,≤ 0.2
11,LPLN,≤ 0.2
12,SPHY,≤ 0.2
13,GQKT,≤ 0.2
14,MESD,≤ 0.2
15,GTTT,≤ 0.2
16,FSSV,≤ 0.2
17,RVYF,≤ 0.2
18,LMGL,≤ 0.2
19,WSIC,≤ 0.2
20,YLFF,≤ 0.2
21,NDSR,≤ 0.2
22,DKNC,≤ 0.2
23,PWTD,≤ 0.2
24,NPEN,≤ 0.2

row,Variant,one-hybrid fitness for binding NBS DNA
1,VYKD,≤ 0.2
2,GTGL,≤ 0.2
3,MAGE,≤ 0.2
4,LYPN,≤ 0.2
5,YATW,≤ 0.2
6,QDHL,≤ 0.2
7,HKWS,≤ 0.2
8,TASK,≤ 0.2
9,LKSW,≤ 0.2
10,TDRF,≤ 0.2
11,PFAG,≤ 0.2
12,SNFV,≤ 0.2
13,GTVR,≤ 0.2
14,FASC,≤ 0.2
15,AEPT,≤ 0.2
16,QERY,≤ 0.2
17,VLDS,≤ 0.2
18,PTTA,≤ 0.2
19,VAAV,≤ 0.2
20,DKSR,≤ 0.2
21,LQRM,≤ 0.2
22,QKIT,0.363
23,MPSV,≤ 0.2
24,QTIK,≤ 0.2

row,Variant,one-hybrid fitness for binding NBS DNA
1,TIGM,≤ 0.2
2,KGPW,≤ 0.2
3,WPYT,≤ 0.2
4,LNPL,≤ 0.2
5,VIDE,≤ 0.2
6,YFYC,≤ 0.2
7,ITPF,≤ 0.2
8,ATYD,≤ 0.2
9,PEKP,≤ 0.2
10,PHTW,≤ 0.2
11,RDGS,≤ 0.2
12,QWVE,≤ 0.2
13,RPPR,≤ 0.2
14,RTRG,0.215
15,IKYS,≤ 0.2
16,RPGM,≤ 0.2
17,CYKC,≤ 0.2
18,LYSK,≤ 0.2
19,GTGT,≤ 0.2
20,ITET,≤ 0.2
21,KPDR,≤ 0.2
22,KCRM,≤ 0.2
23,LEHP,≤ 0.2
24,TSNY,≤ 0.2

row,Variant,one-hybrid fitness for binding NBS DNA
1,YATK,≤ 0.2
2,SPHC,≤ 0.2
3,STIE,≤ 0.2
4,ITQI,≤ 0.2
5,GHAV,≤ 0.2
6,ATTF,≤ 0.2
7,SPTI,≤ 0.2
8,YRPR,≤ 0.2
9,AFPC,≤ 0.2
10,YVQW,≤ 0.2
11,AIGD,≤ 0.2
12,PEAM,≤ 0.2
13,VPGT,≤ 0.2
14,PYNK,≤ 0.2
15,LLRV,≤ 0.2
16,RENN,≤ 0.2
17,QDAS,≤ 0.2
18,TSRN,≤ 0.2
19,AIPG,≤ 0.2
20,VLTN,≤ 0.2
21,IPPY,≤ 0.2
22,WDVW,≤ 0.2
23,WNFR,≤ 0.2
24,GHEC,≤ 0.2

row,Variant,one-hybrid fitness for binding NBS DNA
1,MMVW,≤ 0.2
2,RMQN,≤ 0.2
3,ARLP,≤ 0.2
4,DDWG,≤ 0.2
5,AHKW,≤ 0.2
6,MRTK,≤ 0.2
7,QVLG,≤ 0.2
8,GTGY,≤ 0.2
9,AVSC,≤ 0.2
10,AGRV,≤ 0.2
11,PITQ,≤ 0.2
12,PLEK,≤ 0.2
13,LIVF,≤ 0.2
14,WTNY,≤ 0.2
15,LYLA,≤ 0.2
16,DNYG,≤ 0.2
17,QHWL,≤ 0.2
18,LMVF,≤ 0.2
19,QGVR,≤ 0.2
20,LVYW,≤ 0.2
21,SCAC,≤ 0.2
22,HENW,≤ 0.2
23,GPIR,≤ 0.2
24,LSLD,≤ 0.2

row,Variant,one-hybrid fitness for binding NBS DNA
1,QAYS,0.305
2,WQHR,≤ 0.2
3,QREF,≤ 0.2
4,YVPL,≤ 0.2
5,LAAS,≤ 0.2
6,GRRN,≤ 0.2
7,TGEC,≤ 0.2
8,HIYL,≤ 0.2
9,HSWC,≤ 0.2
10,QVHY,≤ 0.2
11,LGVG,≤ 0.2
12,RHFP,≤ 0.2
13,TGIS,≤ 0.2
14,TYDC,≤ 0.2
15,SEFG,≤ 0.2
16,VLWK,≤ 0.2
17,TREL,≤ 0.2
18,RTWS,0.349
